Among the data in the supplement of paper PMC10369915 are enrichment score values, retold here.

This is one part of the list. Cut-off read from the data, not from the text of the source: active = 3.2 or more and inactive = the rest. The signal is at background level for most entries.
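Note: displayed peptides selected on beads carrying the immobilized SH2 domain, with library peptides lacking any tyrosine serving as negative controls.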

One assay has as its target SHP2 C-SH2 domain E139D. Kind of assay: enrichment score (SH2-bound / input frequency) (ratio); bacterial display of known human phosphotyrosine sites (pTyr-Var adds point mutants) read by sequencing; higher = stronger binding; tyrosines were phosphorylated by kinases first. Conditions: peptide library: pTyr-Var.
Take IFGASYVPFAA [RBM47_Y541_YF]: the enrichment score was inactive: 1.13.

CSEETYRLMLQ [RET_Y981_M980T]: the enrichment score is inactive: 0.836.

For the molecule IENKPYGMSDP [RET_Y1062_L1061P], the enrichment score was inactive: 0.585.

LLILEYAKYGS [RET_Y806_V804L]: the enrichment score was inactive: 2.92.

On to RVQKRYILDNV [RCN1_Y115_F117L], for which the enrichment score was inactive: 0.646.

As to TEDELYQLSLQ [RASGRP2_Y378], the enrichment score is inactive: 0.564.

On to KVGPGYLGSRG [RET_Y826_G830R], for which the enrichment score is inactive: 0.908.

For HDRGNYVRLNM [RECQL4_Y353], the enrichment score was inactive: 1.22.

For LLIMEYAKFGS [RET_Y806_V804M_YF], the enrichment score was active: 3.44.

On to ADRARYSAFGG [RBM4_Y361], for which the enrichment score is inactive: 0.637.

Regarding LAIERYVVVCK [RHO_Y136], the enrichment score was inactive: 0.763.

Turning to MDYRSYPREYG [RBM10_Y44], the enrichment score is inactive: 0.814.

Consider SYPHEYGSQEG [RBM10_Y48_R46H], for which the enrichment score was inactive: 0.716.

On to SSTASYFEAPG [RFX2_Y108], for which the enrichment score was inactive: 0.789.

Turning to LLIMEYAKYGS [RET_Y806_V804M], the enrichment score was inactive: 2.7.

Regarding AFPVSYSSPGA [RET_Y687_S690P], the enrichment score is inactive: 0.741.

VFDHIYTTQSD [RET_Y928_L923V]: the enrichment score is inactive: 1.08.

Regarding LAIELYVVVCK [RHO_Y136_R135L], the enrichment score was inactive: 1.4.

For the molecule VEYAKYGSLRG [RET_Y809], the enrichment score is inactive: 0.568.

For a further assay, the target named is SHP2 C-SH2 domain wild-type. Described as above. Conditions: peptide library: pTyr-Var.
Turning to IFGASYVPFAA [RBM47_Y541_YF], the enrichment score was inactive: 0.902.

Take CSEETYRLMLQ [RET_Y981_M980T]: the enrichment score is inactive: 0.793.

Consider IENKPYGMSDP [RET_Y1062_L1061P], for which the enrichment score is inactive: 0.577.

Regarding LLILEYAKYGS [RET_Y806_V804L], the enrichment score is inactive: 2.72.

Consider RVQKRYILDNV [RCN1_Y115_F117L], for which the enrichment score was inactive: 0.429.

Consider TEDELYQLSLQ [RASGRP2_Y378], for which the enrichment score is inactive: 0.654.

KVGPGYLGSRG [RET_Y826_G830R]: the enrichment score is inactive: 0.667.

HDRGNYVRLNM [RECQL4_Y353]: the enrichment score was inactive: 1.65.

Regarding LLIMEYAKFGS [RET_Y806_V804M_YF], the enrichment score was active: 3.24.

Turning to ADRARYSAFGG [RBM4_Y361], the enrichment score is inactive: 0.566.

Regarding LAIERYVVVCK [RHO_Y136], the enrichment score was inactive: 1.24.

On to MDYRSYPREYG [RBM10_Y44], for which the enrichment score was inactive: 0.682.

On to SYPHEYGSQEG [RBM10_Y48_R46H], for which the enrichment score is inactive: 0.582.

With SSTASYFEAPG [RFX2_Y108], the enrichment score was inactive: 0.717.

As for LLIMEYAKYGS [RET_Y806_V804M], the enrichment score was inactive: 3.04.

As for AFPVSYSSPGA [RET_Y687_S690P], the enrichment score was inactive: 0.779.

As for VFDHIYTTQSD [RET_Y928_L923V], the enrichment score is inactive: 0.999.

With LAIELYVVVCK [RHO_Y136_R135L], the enrichment score is inactive: 0.683.

In the case of VEYAKYGSLRG [RET_Y809], the enrichment score was inactive: 1.28.

Another assay concerns the target SHP2 N-SH2 domain L43F. The description is as above. To be noted: peptide library: pTyr-Var.
With IFGASYVPFAA [RBM47_Y541_YF], the enrichment score is inactive: 1.2.

In the case of CSEETYRLMLQ [RET_Y981_M980T], the enrichment score was inactive: 1.13.

As to IENKPYGMSDP [RET_Y1062_L1061P], the enrichment score is inactive: 0.668.

LLILEYAKYGS [RET_Y806_V804L]: the enrichment score is inactive: 2.61.

On to RVQKRYILDNV [RCN1_Y115_F117L], for which the enrichment score was inactive: 0.526.

Regarding TEDELYQLSLQ [RASGRP2_Y378], the enrichment score is inactive: 0.811.

KVGPGYLGSRG [RET_Y826_G830R]: the enrichment score is inactive: 0.809.

With HDRGNYVRLNM [RECQL4_Y353], the enrichment score is inactive: 1.59.

Consider LLIMEYAKFGS [RET_Y806_V804M_YF], for which the enrichment score was active: 3.87.

Consider ADRARYSAFGG [RBM4_Y361], for which the enrichment score is inactive: 0.601.

For the molecule LAIERYVVVCK [RHO_Y136], the enrichment score was inactive: 0.73.

As for MDYRSYPREYG [RBM10_Y44], the enrichment score was inactive: 0.685.

With SYPHEYGSQEG [RBM10_Y48_R46H], the enrichment score is inactive: 0.511.

For SSTASYFEAPG [RFX2_Y108], the enrichment score is inactive: 0.673.

As for LLIMEYAKYGS [RET_Y806_V804M], the enrichment score was inactive: 2.89.

For the molecule AFPVSYSSPGA [RET_Y687_S690P], the enrichment score is inactive: 0.683.

VFDHIYTTQSD [RET_Y928_L923V]: the enrichment score was inactive: 1.07.

With LAIELYVVVCK [RHO_Y136_R135L], the enrichment score was inactive: 0.741.

For VEYAKYGSLRG [RET_Y809], the enrichment score is inactive: 0.581.

The target of another assay is SHP2 N-SH2 domain T42A. The description is as above. To be noted: peptide library: pTyr-Var.
Take IFGASYVPFAA [RBM47_Y541_YF]: the enrichment score was inactive: 1.31.

For CSEETYRLMLQ [RET_Y981_M980T], the enrichment score was inactive: 0.777.

On to IENKPYGMSDP [RET_Y1062_L1061P], for which the enrichment score is inactive: 0.686.

For LLILEYAKYGS [RET_Y806_V804L], the enrichment score was inactive: 2.15.

Take RVQKRYILDNV [RCN1_Y115_F117L]: the enrichment score is inactive: 0.509.

For the molecule TEDELYQLSLQ [RASGRP2_Y378], the enrichment score was inactive: 0.417.

Turning to KVGPGYLGSRG [RET_Y826_G830R], the enrichment score was inactive: 0.828.

On to HDRGNYVRLNM [RECQL4_Y353], for which the enrichment score was active: 4.14.

In the case of LLIMEYAKFGS [RET_Y806_V804M_YF], the enrichment score was inactive: 2.77.

Turning to ADRARYSAFGG [RBM4_Y361], the enrichment score is inactive: 0.44.

As to LAIERYVVVCK [RHO_Y136], the enrichment score is inactive: 0.879.

As for MDYRSYPREYG [RBM10_Y44], the enrichment score is inactive: 0.606.

In the case of SYPHEYGSQEG [RBM10_Y48_R46H], the enrichment score was inactive: 0.621.

Take SSTASYFEAPG [RFX2_Y108]: the enrichment score was inactive: 0.852.

With LLIMEYAKYGS [RET_Y806_V804M], the enrichment score is inactive: 2.82.

AFPVSYSSPGA [RET_Y687_S690P]: the enrichment score was inactive: 0.605.

Regarding VFDHIYTTQSD [RET_Y928_L923V], the enrichment score is inactive: 0.874.

Turning to LAIELYVVVCK [RHO_Y136_R135L], the enrichment score was inactive: 0.785.

Take VEYAKYGSLRG [RET_Y809]: the enrichment score was inactive: 0.475.

A further assay has as its target SHP2 N-SH2 domain T52S. The assay is described as above. Conditions: peptide library: pTyr-Var.
As to IFGASYVPFAA [RBM47_Y541_YF], the enrichment score is inactive: 1.18.

Turning to CSEETYRLMLQ [RET_Y981_M980T], the enrichment score is inactive: 0.734.

In the case of IENKPYGMSDP [RET_Y1062_L1061P], the enrichment score was inactive: 0.518.

Take LLILEYAKYGS [RET_Y806_V804L]: the enrichment score was inactive: 2.61.

On to RVQKRYILDNV [RCN1_Y115_F117L], for which the enrichment score was inactive: 0.686.

For TEDELYQLSLQ [RASGRP2_Y378], the enrichment score was inactive: 0.691.

Regarding KVGPGYLGSRG [RET_Y826_G830R], the enrichment score is inactive: 0.963.

With HDRGNYVRLNM [RECQL4_Y353], the enrichment score is inactive: 1.61.

On to LLIMEYAKFGS [RET_Y806_V804M_YF], for which the enrichment score was active: 4.58.

Turning to ADRARYSAFGG [RBM4_Y361], the enrichment score is inactive: 0.565.

Consider LAIERYVVVCK [RHO_Y136], for which the enrichment score was inactive: 0.803.

With MDYRSYPREYG [RBM10_Y44], the enrichment score is inactive: 0.611.

Turning to SYPHEYGSQEG [RBM10_Y48_R46H], the enrichment score was inactive: 0.543.

Take SSTASYFEAPG [RFX2_Y108]: the enrichment score is inactive: 0.619.

LLIMEYAKYGS [RET_Y806_V804M]: the enrichment score is inactive: 2.82.

Turning to AFPVSYSSPGA [RET_Y687_S690P], the enrichment score is inactive: 0.861.

In the case of VFDHIYTTQSD [RET_Y928_L923V], the enrichment score is inactive: 0.974.

In the case of LAIELYVVVCK [RHO_Y136_R135L], the enrichment score is inactive: 0.674.

On to VEYAKYGSLRG [RET_Y809], for which the enrichment score was inactive: 0.543.

In a further assay the target is SHP2 N-SH2 domain wild-type. The description is as above. Conditions: peptide library: pTyr-Var.
For the molecule IFGASYVPFAA [RBM47_Y541_YF], the enrichment score is inactive: 0.981.

CSEETYRLMLQ [RET_Y981_M980T]: the enrichment score is inactive: 0.858.

With IENKPYGMSDP [RET_Y1062_L1061P], the enrichment score was inactive: 0.681.

On to LLILEYAKYGS [RET_Y806_V804L], for which the enrichment score was inactive: 2.38.

As for RVQKRYILDNV [RCN1_Y115_F117L], the enrichment score was inactive: 0.369.

With TEDELYQLSLQ [RASGRP2_Y378], the enrichment score was inactive: 0.684.

Turning to KVGPGYLGSRG [RET_Y826_G830R], the enrichment score was inactive: 0.753.

As to HDRGNYVRLNM [RECQL4_Y353], the enrichment score is inactive: 1.34.

On to LLIMEYAKFGS [RET_Y806_V804M_YF], for which the enrichment score was active: 4.54.

Turning to ADRARYSAFGG [RBM4_Y361], the enrichment score is inactive: 0.699.

Regarding LAIERYVVVCK [RHO_Y136], the enrichment score is inactive: 1.06.

For the molecule MDYRSYPREYG [RBM10_Y44], the enrichment score was inactive: 0.889.

As to SYPHEYGSQEG [RBM10_Y48_R46H], the enrichment score was inactive: 0.596.

For SSTASYFEAPG [RFX2_Y108], the enrichment score is inactive: 0.588.

Turning to LLIMEYAKYGS [RET_Y806_V804M], the enrichment score is inactive: 2.42.

As for AFPVSYSSPGA [RET_Y687_S690P], the enrichment score was inactive: 0.804.

On to VFDHIYTTQSD [RET_Y928_L923V], for which the enrichment score is inactive: 1.1.

On to LAIELYVVVCK [RHO_Y136_R135L], for which the enrichment score is inactive: 1.43.

Regarding VEYAKYGSLRG [RET_Y809], the enrichment score is inactive: 0.62.
